Article PMC5681660, “Reduced hepatitis B and D viral entry using clinically applied drugs as novel inhibitors of the bile acid transporter NTCP” (Scientific Reports, 2017)
Structures can show the parent of a compound that is named as a salt. Where two headings read alike, the source gives them in different places.

What was measured:
human NTCP [1] = molecular target: T1, human NTCP (Homo sapiens, UniProt Q14973); test: Screening fluorescent competitive Myrcludex B-FITC binding assay (96-well, 10 µM drug)
T1 sequence (Q14973 1-349): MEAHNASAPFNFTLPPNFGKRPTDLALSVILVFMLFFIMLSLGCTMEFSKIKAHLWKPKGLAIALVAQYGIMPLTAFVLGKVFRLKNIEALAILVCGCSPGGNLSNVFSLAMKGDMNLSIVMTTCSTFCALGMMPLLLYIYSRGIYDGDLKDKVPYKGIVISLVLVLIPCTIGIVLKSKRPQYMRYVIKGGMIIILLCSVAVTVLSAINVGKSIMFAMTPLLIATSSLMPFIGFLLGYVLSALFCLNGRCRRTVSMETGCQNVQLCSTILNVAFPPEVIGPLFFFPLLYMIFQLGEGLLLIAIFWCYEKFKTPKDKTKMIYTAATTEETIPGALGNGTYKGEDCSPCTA

human NTCP [2] = molecular target: T1, human NTCP; test: Screening taurocholate uptake assay (96-well, [14C]taurocholate, 10 µM drug); conditions: for remaining activity at 10 µM: 10 min, read-out: %NTCP activity
[3] = screen, 10 µM drug, Myrcludex B-FITC binding
[4] = screen, 10 µM drug, [14C]taurocholate uptake
[5] = Prestwick library screen, 10 µM drug, Myrcludex B-FITC binding
[6] = Prestwick library screen, Myrcludex B-FITC binding, 10 µM drug

Structure (SMILES)	remaining activity at 10 µM (human NTCP [1]; 0.5 h, read-out: %NTCP binding) [%]	remaining activity at 10 µM (human NTCP [2]) [%]	also measured
CN(C)CCN(Cc1ccc(Cl)cc1)c1ccccn1.Cl [Chloropyramine hydrochloride]			%NTCP binding (human NTCP [1]; [3]): 111.615%; %NTCP activity (human NTCP [2]; [4]): 88.7618%
CCN(CC)CCCC(C)Nc1ccnc2cc(Cl)ccc12 (centres unmarked) [Chloroquine diphosphate]	76.7	90.9	
NS(=O)(=O)c1cc2c(cc1Cl)N=CNS2(=O)=O [Chlorothiazide]	94.1	50.9	
COc1ccc(C(Cl)=C(c2ccc(OC)cc2)c2ccc(OC)cc2)cc1 [Chlorotrianisene]	92.8	92.9	
Oc1c(Cl)cc(Cl)c2cccnc12 [Chloroxine]	84.6	88.3	
CN(C)CCC(c1ccc(Cl)cc1)c1ccccn1 (centres unmarked) [Chlorpheniramine maleate]	90.3	31.4	
CCCNC(=O)NS(=O)(=O)c1ccc(Cl)cc1 [Chlorpropamide]	77.7	72.1	
CN(C)CC/C=C1/c2ccccc2Sc2ccc(Cl)cc21 [Chlorprothixene hydrochloride]	70.3	71.3	
CN(C)[C@@H]1C(O)=C(C(N)=O)C(=O)[C@@]2(O)C(O)=C3C(=O)c4c(O)ccc(Cl)c4[C@@](C)(O)[C@H]3C[C@@H]12 [Chlortetracycline hydrochloride]	89	55.3	
NS(=O)(=O)c1cc(C2(O)NC(=O)c3ccccc32)ccc1Cl (centres unmarked) [Chlorthalidone]	90.2	93.6	
Cc1cc(C2CCCCC2)n(O)c(=O)c1.NCCO [Ciclopirox ethanolamine]			%NTCP binding (human NTCP [1]; [5]): 84.4317%; %NTCP activity (human NTCP [2]; Prestwick library screen, 10 µM drug, [14C]taurocholate uptake): 102.959%
COCCOC(=O)C1=C(C)NC(C)=C(C(=O)OC/C=C/c2ccccc2)C1c1cccc([N+](=O)[O-])c1 (centres unmarked) [Cilnidipine]	84.9	126	
O=C1CCc2cc(OCCCCc3nnnn3C3CCCCC3)ccc2N1 [Cilostazol]	83.5	108	
CC(C)(Oc1ccc(C2CC2(Cl)Cl)cc1)C(=O)O (centres unmarked) [Ciprofibrate]	91.9	72.3	
COc1ccc(C[C@@H]2c3cc(OC)c(OC)cc3CC[N@+]2(C)CCC(=O)OCCCCCOC(=O)CC[N@@+]2(C)CCc3cc(OC)c(OC)cc3[C@H]2Cc2ccc(OC)c(OC)c2)cc1OC [Cisatracurium besylate]	89	107	
CC[C@H]1OC(=O)[C@H](C)[C@@H](O[C@H]2C[C@@](C)(OC)[C@@H](O)[C@H](C)O2)[C@H](C)[C@@H](O[C@@H]2O[C@H](C)C[C@H](N(C)C)[C@H]2O)[C@](C)(OC)C[C@@H](C)C(=O)[C@H](C)[C@@H](O)[C@]1(C)O [Clarithromycin]	82.1	87.5	
O=C([O-])[C@H]1/C(=C/CO)O[C@@H]2CC(=O)N21.[K+] [Clavulanate potassium salt]			%NTCP binding (human NTCP [1]; [5]): 108.427%; %NTCP activity (human NTCP [2]): 71.7498%
COc1cc(N)c(Cl)cc1C(=O)NC1CCN(Cc2ccccc2)CC1 [Clebopride maleate]	52.3	74	
Cl.Clc1ccc(Cn2c(CN3CCCC3)nc3ccccc32)cc1 [Clemizole hydrochloride]			%NTCP binding (human NTCP [1]; [3]): 60.3985%; %NTCP activity (human NTCP [2]; [4]): 124.155%
C[N+]12CCC(CC1)C(OC(=O)C(O)(c1ccccc1)c1ccccc1)C2 (centres unmarked) [Clidinium bromide]	118	81.8	
NC1CCN(c2c(F)cc3c(=O)c(C(=O)O)cn(C4CC4)c3c2Cl)C1 (centres unmarked) [Clinafloxacin]	85	102	
Oc1c(I)cc(Cl)c2cccnc12 [Clioquinol]	97.2	109	
C[C@@H]1C[C@H]2[C@@H]3C[C@H](F)C4=CC(=O)C=C[C@]4(C)[C@@]3(Cl)[C@@H](O)C[C@]2(C)[C@H]1C(=O)COC(=O)C(C)(C)C [Clocortolone pivalate]	92.7	122	

Structure (SMILES)	remaining activity at 10 µM (human NTCP [1]; 0.5 h, read-out: %NTCP binding) [%]	remaining activity at 10 µM (human NTCP [2]) [%]	also measured
O=P(O)(O)C(Cl)(Cl)P(=O)(O)O [Clodronate]	79.1	80.8	
CC(C)/N=c1\cc2n(-c3ccc(Cl)cc3)c3ccccc3nc-2cc1Nc1ccc(Cl)cc1 [Clofazimine]	42.5	69.4	
CCOC(=O)C(C)(C)Oc1ccc(Cl)cc1 [Clofibrate]	103	87.5	
CC(C)(Oc1ccc(Cl)cc1)C(=O)O [Clofibric acid]	96.3	95.7	
CCN(CC)CCOc1ccc(C(=C(Cl)c2ccccc2)c2ccccc2)cc1.O=C(O)CC(O)(CC(=O)O)C(=O)O [Clomiphene citrate (Z,E)]			%NTCP binding (human NTCP [1]; [6]): 70.6525%; %NTCP activity (human NTCP [2]; Prestwick library screen, [14C]taurocholate uptake, 10 µM drug): 111.574%
CN(C)CCCN1c2ccccc2CCc2ccc(Cl)cc21 [Clomipramine hydrochloride]	63.7	92.5	
Cl.Clc1ccc(C(OCCN2CCCCC2)c2ccccc2)cc1 (centres unmarked) [Cloperastine hydrochloride]			%NTCP binding (human NTCP [1]; [5]): 76.1406%; %NTCP activity (human NTCP [2]): 95.7222%
C#CCN(C)CCCOc1ccc(Cl)cc1Cl [Clorgyline hydrochloride]	66.1	62.4	
Nc1cc(C(Cl)=C(Cl)Cl)c(S(N)(=O)=O)cc1S(N)(=O)=O [Clorsulon]	33.6	105	
C[C@]12C[C@H](O)[C@H]3[C@@H](CCC4=CC(=O)CC[C@@]43C)[C@@H]1CC[C@@H]2C(=O)CO [Corticosterone]	46.2	65.1	
CC(=O)OCC(=O)[C@@]1(O)CC[C@H]2[C@@H]3CCC4=CC(=O)CC[C@]4(C)[C@H]3[C@@H](O)C[C@@]21C [Cortisol acetate]			%NTCP binding (human NTCP [1]; [6]): 118.411%; %NTCP activity (human NTCP [2]): 62.45%
C[C@]12CCC(=O)C=C1CC[C@@H]1[C@@H]2C(=O)C[C@@]2(C)[C@H]1CC[C@]2(O)C(=O)CO [Cortisone]			%NTCP binding (human NTCP [1]; [3]): 87.1881%; %NTCP activity (human NTCP [2]; [4]): 71.1242%
O=C(O)c1cc(=O)c2c(OCC(O)COc3cccc4oc(C(=O)O)cc(=O)c34)cccc2o1 [Cromolyn disodium salt]	113	79.2	
C[C@@H]1C[C@@H]([C@H](O)CC2CC(=O)NC(=O)C2)C(=O)[C@@H](C)C1 [Cycloheximide]	85.1	96.3	
NS(=O)(=O)c1cc2c(cc1Cl)NC(CC1CCCC1)NS2(=O)=O (centres unmarked) [Cyclopenthiazide]	119	79.4	
CN(C)CCOC(=O)C(c1ccccc1)C1(O)CCCC1 (centres unmarked) [Cyclopentolate hydrochloride]	96	96.5	
CN1CCC(=C2c3ccccc3C=Cc3ccccc32)CC1 [Cyproheptadine hydrochloride]	92.1	59.2	
CC(=O)O[C@]1(C(C)=O)CC[C@H]2[C@@H]3C=C(Cl)C4=CC(=O)[C@@H]5C[C@@H]5[C@]4(C)[C@H]3CC[C@@]21C [Cyproterone acetate]	101	47.9	
Nc1ccn([C@@H]2O[C@H](CO)[C@@H](O)[C@@H]2O)c(=O)n1 [Cytarabine]	82.8	139	
N[C@@H]1CON=C1O [D-cycloserine]	95.3	65.9	
COc1ccccc1N1CCN(CCCCNC(=O)c2ccc3ccccc3c2)CC1.Cl.Cl [DO 897/99]			%NTCP binding (human NTCP [1]; [3]): 61.1516%; %NTCP activity (human NTCP [2]): 41.0079%
CN(C)/N=N/c1[nH]cnc1C(N)=O [Dacarbazine]	88	112	
C#C[C@]1(O)CC[C@H]2[C@@H]3CCC4=Cc5oncc5C[C@]4(C)[C@H]3CC[C@@]21C [Danazol]	83.1	33.6	
